Measured values as given in patent EP4631959A2, “NOVEL MINIGASTRIN-DERIVED CHOLECYSTOKININ 2 RECEPTOR BINDING MOLECULES FOR IMAGING AND TARGETED RADIOTHERAPY” (priority 2022, dated 2024).
For part of these data: At least one peptide structure holds a part that was inferred or is arguable (an end, a ring closure or a residue). For part of these data: At least one compound was matched to its structure with a doubt left. Starred links: 1 amine or outer side, 2 acyl side, 3 side chain; linkers in the order of their positions; H or OH if unused. Non-standard residues stand in square brackets, D forms with d. Residues, ends and D or L forms follow the SMILES beside them. ξ: configuration not given here. *: point of attachment. DOTA = O=C(O)CN1CCN(CC(=O)O)CCN(CC(=O)*)CCN(CC(=O)O)CC1; d(γGlu) = O=C(O)[C@@H](CCC(=O)[*:2])N[*:1]; Phe(4-NH2) = Nc1ccc(C[C@H](N)C(=O)O)cc1; 1Nal = N[C@@H](Cc1cccc2ccccc12)C(=O)O; hPhe = N[C@@H](CCc1ccccc1)C(=O)O; NMeE = CN[C@@H](CCC(=O)O)C(=O)O; PEG5 = NCCOCCOCCOCCOCCOCCC(=O)O; ξαMeF = CC(N)(Cc1ccccc1)C(=O)O; NMeNle = CCCC[C@H](NC)C(=O)O; Phg = N[C@H](C(=O)O)c1ccccc1; NMeV = CN[C@H](C(=O)O)C(C)C; NMeA = CN[C@@H](C)C(=O)O; Nle = CCCC[C@H](N)C(=O)O

How the values were obtained:
CCK-2R = target: T1, CCK-2R (Rattus norvegicus, UniProt P30553); assay: Determination of IC50: CCK-2R affinity on AR4-2J cells, competition with [^177Lu]Lu-DOTA-PP-F11N; format: binding; settings: references ^natLu-labeled, other peptides without chelator, read-out: IC50 [nM] (n = 3)
T1 construct: The CCK-2R expressing rat pancreatic tumor cells AR4-2J; host or cells: AR4-2J rat pancreatic tumor cells
T1 sequence (P30553 1-452): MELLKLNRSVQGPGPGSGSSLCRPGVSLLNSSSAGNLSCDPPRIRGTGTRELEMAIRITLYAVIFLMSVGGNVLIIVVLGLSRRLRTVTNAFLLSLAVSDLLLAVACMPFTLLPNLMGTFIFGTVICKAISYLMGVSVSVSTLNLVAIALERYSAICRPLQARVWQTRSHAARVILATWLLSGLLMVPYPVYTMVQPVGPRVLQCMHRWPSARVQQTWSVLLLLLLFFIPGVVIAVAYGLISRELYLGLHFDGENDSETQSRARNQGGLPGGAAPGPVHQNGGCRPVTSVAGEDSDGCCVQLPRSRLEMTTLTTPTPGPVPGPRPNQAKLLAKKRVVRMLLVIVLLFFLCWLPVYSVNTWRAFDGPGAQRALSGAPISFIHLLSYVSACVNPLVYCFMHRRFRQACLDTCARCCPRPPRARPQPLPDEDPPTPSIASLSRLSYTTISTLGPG
Procedure: AR4-2J cells were harvested 24 ± 2 h before the experiment and seeded in 24-well plates (2.0 × 10^5 cells in 1 mL/well). After removal of the nutrient medium (RPMI 1640, 5 mM L-Gln, 5 mL non-essential amino acids (100×), 10% FCS), the cells were washed once with 500 µL PBS. Thereafter, 200 µL nutrient medium (5% BSA, v/v) were added. Next, 25 µL per well of solutions containing either nutrient medium (5% BSA, v/v) as control or the respective compound in increasing concentration (10^-10 - 10^-4 M), were added with subsequent addition of 25 µL [^177Lu]Lu-DOTA-PP-F11N (0.3 pmol/well).
All experiments were performed in triplicate for each concentration. After 3 h incubation at 37 °C, the experiment was terminated by removal of the medium and consecutive rinsing with 300 µL PBS. The media of both steps were combined in one fraction and represent the amount of free radiolabeled reference. Afterwards, the cells were lysed with 300 µL of 1 M NaOH for at least 15 min and united with the 300 µL NaOH of the following washing step. Quantification of bound and free radiolabeled reference was accomplished in a γ-counter. IC50 determination for each conjugate was repeated twice.

[1] = n-Octanol-PBS distribution coefficient (logD7.4); format: physicochemical; settings: pH = 7.4, ^177Lu-labeled
Procedure: Approximately 1 MBq of the labeled tracer was dissolved in 1 mL of a 1/1 mixture (v/v) of phosphate buffered saline (PBS, pH = 7.4) and n-octanol in an Eppendorf tube (1.5 mL). After vigorous mixing of the suspension for 3 min at rt, the vial was centrifuged at 9,000 rpm for 5 min (Biofuge 15, Heraeus Sepatech, Osterode, Germany) and 200 µL aliquots of both layers were measured in a γ-counter. The experiment was repeated at least five times.

Row | SMILES | IC50 (CCK-2R) | logD7.4 (n ≥ 5), ^177Lu-labeled [1]
1 | C[C@@H](C(=O)N[C@@H](CC(=O)O)C(=O)N[C@@H](Cc1cccc2ccccc12)C(N)=O)N(C)C(=O)[C@@H](N)Cc1c[nH]c2ccccc12 [H-Trp-(N-Me)Ala-Asp-1-Nal-NH2] (H-W[NMeA]D[1Nal]-NH2) | 4590 ± 1210 nM | –
2 | CC(C)[C@@H](C(=O)N[C@@H](CC(=O)O)C(=O)N[C@@H](Cc1cccc2ccccc12)C(N)=O)N(C)C(=O)[C@@H](N)Cc1c[nH]c2ccccc12 [H-Trp-(N-Me)Val-Asp-1-Nal-NH2] (H-W[NMeV]D[1Nal]-NH2) | > 10 nM | –
3 | CCCC[C@@H](C(=O)N[C@@H](CC(=O)O)C(=O)N[C@@H](Cc1cccc2ccccc12)C(N)=O)N(C)C(=O)[C@@H](N)Cc1ccccc1 [H-Phe-(N-Me)Nle-Asp-1-Nal-NH2] (H-F[NMeNle]D[1Nal]-NH2) | 6550 ± 1980 nM | –
4 | CCCC[C@@H](C(=O)N[C@@H](CC(=O)O)C(=O)N[C@@H](Cc1cccc2ccccc12)C(N)=O)N(C)C(=O)[C@H](Cc1c[nH]c2ccccc12)NC(=O)CCOCCOCCOCCOCCOCCNC(=O)CN1CCN(CC(=O)O)CCN(CC(=O)O)CCN(CC(=O)O)CC1 [DOTA-CCK-50, DOTA-(PEG)4-Trp-(N-Me)Nle-Asp-1-Nal-NH2] ({DOTA-PEG5}-W[NMeNle]D[1Nal]-NH2) | – | −2.31 ± 0.05
5 | CCCC[C@H](NC(=O)[C@H](Cc1c[nH]c2ccccc12)NC(=O)CNC(=O)[C@H](Cc1ccc(O)cc1)NC(=O)[C@H](C)NC(=O)CC[C@@H](N)C(=O)O)C(=O)N[C@@H](CC(=O)O)C(=O)NC(C)(Cc1ccccc1)C(N)=O (stereo partly drawn) [CCK-36, H-γ-glu-Ala-Tyr-Gly-Trp-Nle-Asp-(α-Me)Phe-NH2] ({d(γGlu)}-AYGW[Nle]D[ξαMeF]-NH2) | > 10000 nM | –
6 | CCCC[C@@H](C(=O)N[C@@H](CC(=O)O)C(=O)N[C@@H](Cc1cccc2ccccc12)C(N)=O)N(C)C(=O)[C@H](Cc1c[nH]c2ccccc12)NC(=O)CNC(=O)CN1CCN(CC(=O)O)CCN(CC(=O)O)CCN(CC(=O)O)CC1 [DOTA-CCK-58, DOTA-Gly-Trp-(N-Me)Nle-Asp-1-Nal-NH2] ({DOTA}-GW[NMeNle]D[1Nal]-NH2) | – | −1.34 ± 0.08
7 | CCCC[C@H](NC(=O)[C@H](Cc1c[nH]c2ccccc12)NC(=O)CNC(=O)[C@H](Cc1ccc(O)cc1)NC(=O)[C@H](C)NC(=O)CC[C@@H](N)C(=O)O)C(=O)N[C@@H](CC(=O)O)C(=O)N[C@@H](CCc1ccccc1)C(N)=O [CCK-33, H-γ-glu-Ala-Tyr-Gly-Trp-Nle-Asp-(homo-Phe)-NH2] ({d(γGlu)}-AYGW[Nle]D[hPhe]-NH2) | > 1000 nM | –
8 | CCCC[C@@H](C(=O)N[C@@H](CC(=O)O)C(=O)N[C@@H](Cc1cccc2ccccc12)C(N)=O)N(C)C(=O)[C@@H](N)Cc1cccc2ccccc12 [H-1-Nal-(N-Me)Nle-Asp-1-Nal-NH2] (H-[1Nal][NMeNle]D[1Nal]-NH2) | 592 ± 69 nM | –
9 | CCCC[C@H](NC(=O)[C@H](Cc1c[nH]c2ccccc12)NC(=O)CNC(=O)[C@H](Cc1ccc(O)cc1)NC(=O)[C@H](C)NC(=O)CC[C@@H](N)C(=O)O)C(=O)N[C@@H](CC(=O)O)C(=O)N[C@H](C(N)=O)c1ccccc1 [CCK-35, H-γ-glu-Ala-Tyr-Gly-Trp-Nle-Asp-Phg-NH2] ({d(γGlu)}-AYGW[Nle]D[Phg]-NH2) | > 10000 nM | –
10 | CN(C(=O)[C@@H](N)Cc1c[nH]c2ccccc12)[C@@H](CCC(=O)O)C(=O)N[C@@H](CC(=O)O)C(=O)N[C@@H](Cc1cccc2ccccc12)C(N)=O [H-Trp-(N-Me)Glu-Asp-1-Nal-NH2] (H-W[NMeE]D[1Nal]-NH2) | 4690 ± 1190 nM | –
11 | CCCC[C@@H](C(=O)N[C@@H](CC(=O)O)C(=O)N[C@@H](Cc1cccc2ccccc12)C(N)=O)N(C)C(=O)[C@@H](N)Cc1ccc(N)cc1 [H-p-amino-Phe-(N-Me)Nle-Asp-1-Nal-NH2] (H-[Phe(4-NH2)][NMeNle]D[1Nal]-NH2) | 3980 ± 1620 nM | –
12 | CCCC[C@H](NC(=O)[C@H](Cc1c[nH]c2ccccc12)NC(=O)CNC(=O)[C@H](Cc1ccc(O)cc1)NC(=O)[C@H](C)NC(=O)CC[C@@H](N)C(=O)O)C(=O)N[C@@H](CC(=O)O)C(=O)N[C@@H](Cc1ccccc1)C(N)=O [CCK-32, H-γ-glu-Ala-Tyr-Gly-Trp-Nle-Asp-Phe-NH2] ({d(γGlu)}-AYGW[Nle]DF-NH2) | 21.4 ± 2.9 nM | –
